{"source": "PubChem BioAssay AID463173", "about": "(ICCB-Longwood Screening Facility, Harvard Medical School, 2010)", "note": "Out of some 52,000 compounds screened, about 4,300 (8.3%) were called active. Rule as the data show it: active = survival mostly below about 52% (no sharp cut-off); inactive = mostly above about 56%. Some of the results follow.", "data": [{"system": "DeltatarO mutant", "assay": "growth inhibition of S. aureus wild type versus tarO mutant, primary screen, teichoic acid synthesis inhibitors, RN4220, OD600 (AID 463173)", "conditions": "OD600, 18 h, stronger effect = lower value, screened at 18.75 µg/mL (by protocol)", "values": [{"compound": "COCCNC(=S)N1CCC(c2nc(-c3ccc(N(C)C)cc3)no2)CC1", "survival": "inactive: 88%"}, {"compound": "COc1ccc(CCNC(=O)c2ccc3c(c2)nc2n3CCCCC2)cc1OC", "survival": "inactive: 75%"}, {"compound": "Cc1cccc(N2CCN(Cc3nnc(-c4cccc(Br)c4)o3)CC2)c1C", "survival": "inactive: 72%"}, {"compound": "CCOC(=O)c1cc(C)n(CC2CCC(C(=O)Nc3cccc(C(C)=O)c3)CC2)c1C", "note": "(stereo not drawn)", "survival": "inactive: 92%"}, {"compound": "CCOc1ccccc1CNCc1c(C(=O)O)n(Cc2ccccc2)c2cc(OC)ccc12", "survival": "inactive: 79%"}, {"compound": "CCOc1ccccc1C1C(C(=O)Nc2ccccc2)=C(C)Nc2nc(-c3ccccc3)nn21", "note": "(stereo not drawn)", "survival": "inactive: 75%"}, {"compound": "CCCCn1c(SCC(=O)c2ccccc2)nc2sc3c(c2c1=O)CCCC3", "survival": "active: 44%"}, {"compound": "CC(C)NC(=O)CSc1cn(CC(=O)N2CCCCCC2)c2ccccc12", "survival": "inactive: 83%"}, {"compound": "Cc1ccc(-c2nnc3c4ccccc4c(-c4ccccc4)nn23)cc1", "survival": "inactive: 134%"}, {"compound": "CCOc1ccccc1NCc1nnc2n1CCCCC2", "survival": "inactive: 95%"}, {"compound": "Cc1ccc(NCc2cc3cc4c(cc3n(CC(=O)Nc3ccc(C)cc3)c2=O)OCCO4)cc1", "survival": "active: 32%"}, {"compound": "COc1ccc(N2CCN(C(=O)c3cnc(N4CCOCC4)c4ccccc34)CC2)cc1", "survival": "inactive: 90%"}, {"compound": "CCc1ccccc1N(C)C(=O)c1nn(-c2ccc(OC)cc2)c(=O)c2c1c1ccccc1n2C", "survival": "inactive: 82%"}, {"compound": "Cc1cccc(NC(=O)c2ccc3oc(=O)c(S(=O)(=O)c4ccc(F)cc4)cc3c2)c1C", "survival": "inactive: 122%"}, {"compound": "CCOc1ccc(CNc2cc(C)nc3nc(-c4cccc(C)c4)nn23)cc1OC", "survival": "inactive: 95%"}, {"compound": "CCOC(=O)c1cnc2ccc(OCC)cc2c1NCCN(C)C", "survival": "inactive: 95%"}, {"compound": "CCOc1ccc(S(=O)(=O)c2cc3cccc(OCC)c3oc2=O)cc1", "survival": "inactive: 100%"}, {"compound": "CC1CCc2c(sc3nnn(Cc4ccccc4Cl)c(=O)c23)C1", "note": "(stereo not drawn)", "survival": "active: 13%"}, {"compound": "CCCCN(CC)C(=O)c1ccc2c(c1)NC(=O)c1ccccc1S2", "survival": "inactive: 104%"}, {"compound": "CCc1cccc(NC(=O)c2cc3c(=O)oc4ccc(C)cc4c3s2)c1", "survival": "inactive: 116%"}, {"compound": "COc1ccc(CNC(=O)C(CC(C)C)NS(=O)(=O)c2ccc3c(c2)oc(=O)n3C)cc1", "note": "(stereo not drawn)", "survival": "inactive: 80%"}, {"compound": "CCCNS(=O)(=O)c1ccc(OCC(=O)NCc2ccco2)cc1", "survival": "inactive: 95%"}, {"compound": "Cc1ccc(S(=O)(=O)c2cn(Cc3ccccc3)c3cc(N4CCCC4)c(F)cc3c2=O)c(C)c1", "survival": "inactive: 94%"}, {"compound": "CSc1nnc(NC(=O)c2cc(=O)c3cc(C)c(C)cc3o2)s1", "survival": "inactive: 52%"}, {"compound": "CCOc1c(CNCCSc2nnnn2C)cccc1OC", "survival": "inactive: 66%"}, {"compound": "COc1cc(S(=O)(=O)Nc2ccccc2NC(=O)CN2CCOCC2)c(OC)cc1NC(C)=O", "survival": "inactive: 81%"}, {"compound": "CC(C)(C)n1nnnc1C(c1cccc(C(F)(F)F)c1)N1CCC(O)CC1", "note": "(stereo not drawn)", "survival": "inactive: 92%"}, {"compound": "Cc1cccc(C)c1NC(=O)C(=O)NCC(c1ccc2c(c1)OCO2)N1CCN(C)CC1", "note": "(stereo not drawn)", "survival": "inactive: 88%"}, {"compound": "COc1ccc(C)cc1NC(=O)c1nnn(CC(=O)Nc2c(C)cccc2C)c1N", "survival": "inactive: 93%"}, {"compound": "CC1=C(C(=O)N(C)C)C(c2ccccc2Cl)NC(=O)N1", "note": "(stereo not drawn)", "survival": "inactive: 76%"}, {"compound": "Cc1ccc(C)c(S(=O)(=O)c2nnn3c2nc(NC2CCCC2)c2sccc23)c1", "survival": "inactive: 66%"}, {"compound": "O=C(c1ccc(Br)cc1)N(Cc1ccco1)c1ccccn1", "survival": "inactive: 58%"}, {"compound": "CN1C(=O)Cc2cc(S(=O)(=O)NCc3ccccc3Cl)ccc21", "survival": "inactive: 90%"}, {"compound": "CCc1ccc(NC(=O)Cn2c(=O)n(-c3cccc(OC)c3)c(=O)c3c(C)c(C(=O)N(C)C)sc32)cc1", "survival": "inactive: 69%"}, {"compound": "CCCc1ccc(OCc2ccc(C(=O)Nc3ccccc3C(=O)OC)o2)cc1", "survival": "active: -2%"}, {"compound": "CCc1ccc(CNC(=O)c2cccc(-n3c(C)nc4cccnc43)c2)cc1", "survival": "inactive: 91%"}, {"compound": "Cc1ccc2oc(C(=O)N3CCC(c4nc5ccccc5s4)CC3)c(C)c2c1", "survival": "inactive: 52%"}, {"compound": "COc1ccc(N(CC(=O)N2CCCCC2)S(=O)(=O)c2ccc(OC)c(OC)c2)cc1", "survival": "inactive: 73%"}, {"compound": "CCc1cccc(NC(=O)C2CCCN2S(=O)(=O)c2ccc3nc(-c4ccccc4)[nH]c3c2)c1", "note": "(stereo not drawn)", "survival": "active: 35%"}, {"compound": "Cc1ccc(Cn2c(=O)n(Cc3ccc(C(=O)NC4CCN(Cc5ccccc5)CC4)cc3)c(=O)c3ccccc32)cc1", "survival": "inactive: 85%"}, {"compound": "CCN(CC)CCN1C(=O)c2ccccc2NC1c1ccccc1F", "note": "(stereo not drawn)", "survival": "inactive: 106%"}, {"compound": "CC(=O)c1ccc(NC(=O)CCn2cccn2)cc1", "survival": "inactive: 75%"}, {"compound": "N#Cc1ccc(OCc2nnc(SCC(=O)c3ccccc3)n2-c2ccccc2)cc1", "survival": "inactive: 87%"}, {"compound": "COC(=O)c1cc(-c2ccc(C)cc2)no1", "survival": "inactive: 97%"}, {"compound": "Cc1ccc(-n2c(C)cc(C=C3C(=O)NC(=O)NC3=O)c2C)cc1", "survival": "inactive: 86%"}, {"compound": "CC(C)Cn1c(-c2ccccc2Cl)nc2ccccc21", "survival": "active: -2%"}, {"compound": "CC(=O)Nc1ccc(N2CCN(Cc3ccccc3)CC2)cc1", "survival": "inactive: 86%"}, {"compound": "O=C(NCCc1ccc(Cl)cc1)c1nnc(Cc2ccc(Cl)cc2Cl)o1", "survival": "inactive: 96%"}, {"compound": "O=C(CSc1nnc(NC(=O)C2CC2)s1)Nc1ccccc1F", "survival": "inactive: 105%"}, {"compound": "CCOc1ccc(-c2c(C)nn3c(C)c(C(=O)NCCN(C)C)cnc23)cc1OCC", "survival": "inactive: 66%"}, {"compound": "N/C(=N\\OC(=O)Cc1ccccc1)c1ccncc1", "survival": "inactive: 89%"}, {"compound": "CCC(C)NC(=O)c1cnn2c(C)cc(C)nc12", "note": "(stereo not drawn)", "survival": "inactive: 86%"}, {"compound": "COCCCNC(=O)CCCn1c(=O)c2ccccc2n(CC(=O)Nc2ccc(C)cc2Cl)c1=O", "survival": "inactive: 96%"}, {"compound": "Cn1c(=O)c2c(nc(N3CCOCC3)n2Cc2ccccc2Cl)n(C)c1=O", "survival": "active: 46%"}, {"compound": "COc1ccc(-c2nnn(CC(=O)Nc3sc4c(c3C#N)CCCC4)n2)cc1", "survival": "inactive: 98%"}, {"compound": "COc1cc(Nc2nn(-c3ccc(OC(F)(F)F)cc3)nc2C(C)=O)cc(OC)c1", "survival": "inactive: 90%"}, {"compound": "Cc1nc(S(=O)(=O)N2CCN(c3cccc(Cl)c3)CC2)cn1C", "survival": "inactive: 106%"}, {"compound": "COc1cc(OC)cc(-c2nnc(SCC(=O)c3ccc([N+](=O)[O-])cc3)o2)c1", "survival": "inactive: 73%"}, {"compound": "O=C(CSc1nncn2c1cc1occc12)Nc1ccc(F)c(Cl)c1", "survival": "inactive: 65%"}, {"compound": "COc1ccc(N(CC(=O)NCCc2ccc(C)cc2)S(=O)(=O)c2c(C)nn(C)c2C)cc1", "survival": "inactive: 71%"}, {"compound": "CC(C)Cn1c(CN2CCN(c3cccc(Cl)c3)CC2)nc2c1c(=O)[nH]c(=O)n2C", "survival": "inactive: 122%"}, {"compound": "Oc1ccc(Br)cc1C1CC(c2ccccc2)=NC(c2ccco2)N1", "note": "(stereo not drawn)", "survival": "active: 1%"}, {"compound": "CCOc1ccc(-c2cn3c(n2)sc2cc(C(=O)NCCCN4CCCCC4)ccc23)cc1", "survival": "active: -1%"}, {"compound": "CC1=C(C(=O)Nc2ccccc2)C(C(C)C)n2nc(SCc3ccccc3C)nc2N1", "note": "(stereo not drawn)", "survival": "inactive: 75%"}, {"compound": "CCC(=O)Nc1cc(-c2cn3cccnc3n2)ccc1OC", "survival": "inactive: 87%"}, {"compound": "Nc1nc(SCc2ccccc2)ns1", "survival": "inactive: 53%"}, {"compound": "Cc1ccc(NCc2nnc(SCc3cc(C)ccc3C)o2)c(C)c1", "survival": "inactive: 91%"}, {"compound": "COc1cc(NC(=O)c2ccc(-c3nc(CSc4ccccc4)c(C)o3)cc2)cc(OC)c1", "survival": "inactive: 115%"}, {"compound": "CCOC(=O)c1cc(-c2ccc(OC)cc2)n(CCC(=O)Nc2cccc(C)c2C)c1C", "survival": "inactive: 93%"}, {"compound": "CCCCc1nn2c(=O)cc(COC(=O)c3ccc4c(c3)OCO4)nc2s1", "survival": "inactive: 81%"}, {"compound": "COc1cc(OC)cc(-n2c(=O)c3ccccc3n(Cc3ccccc3C#N)c2=O)c1", "survival": "inactive: 128%"}, {"compound": "CCOC(=O)c1ccc2c(c1)N(CC#N)C(=O)C(C)(C)O2", "survival": "inactive: 94%"}, {"compound": "COc1ccccc1C(=O)NCC(c1ccc(N(C)C)cc1)N1CCc2ccccc21", "note": "(stereo not drawn)", "survival": "active: 46%"}, {"compound": "O=C(CCCn1c(=O)[nH]c2ccc(Br)cc2c1=O)N1CCN(c2cccc(Cl)c2)CC1", "survival": "active: 48%"}, {"compound": "Cc1cc(NC(=O)c2ccco2)cc(-c2nc3ccccc3o2)c1O", "survival": "inactive: 66%"}, {"compound": "CCCNC(=O)Cn1nc(-c2ccc(C)cc2)c2cnc3ccc(CC)cc3c21", "survival": "active: 37%"}, {"compound": "CCn1c(C)c(C)c2cc(C(=O)N3CCN(c4ccccc4)CC3)ccc21", "survival": "inactive: 94%"}, {"compound": "Cc1ccc(S(=O)(=O)n2c(CN3CCCC(C)C3)nc3ccccc32)cc1", "note": "(stereo not drawn)", "survival": "inactive: 99%"}, {"compound": "CCN(C(=O)CCS(=O)(=O)c1cc2c(cc1C)NC(=O)CO2)c1cccc(C)c1", "survival": "inactive: 84%"}, {"compound": "CN(C)CCN(Cc1ccccc1)S(=O)(=O)c1csc(C(N)=O)c1", "survival": "inactive: 74%"}, {"compound": "O=C(Cn1ncn2cccc2c1=O)NCc1cccc(Br)c1", "survival": "inactive: 98%"}, {"compound": "CCOC(=O)C(C)(C)Sc1nnc(COc2ccccc2)n1CC", "survival": "inactive: 99%"}, {"compound": "COc1ccc(N(CC(C)C)S(=O)(=O)c2nnc(NC(=O)c3ccco3)s2)cc1", "survival": "active: 41%"}, {"compound": "Cc1c(Cl)cccc1NC(=O)Cn1c(=O)cc(C)c2c(C)nn(-c3cccc(F)c3)c21", "survival": "inactive: 78%"}, {"compound": "COc1ccc(NC(=O)c2cc(-c3ccc(F)cc3)no2)cc1OC", "survival": "inactive: 71%"}, {"compound": "CCCc1nc(SCC(=O)N(CC)CC)c2ccccc2n1", "survival": "inactive: 76%"}, {"compound": "COc1ccccc1Cc1nc2ccccc2nc1SCC(=O)Nc1c(C)cccc1C", "survival": "inactive: 87%"}, {"compound": "COC(=O)c1ccc(C(=O)OC)c(NC(C)=O)c1", "survival": "inactive: 73%"}, {"compound": "COc1ccccc1NC(=O)CSC1=Nc2ccccc2C2=NC(CC(=O)NCc3ccc4c(c3)OCO4)C(=O)N12", "note": "(stereo not drawn)", "survival": "inactive: 98%"}, {"compound": "CCOC(=O)c1noc2ncnc(NCc3ccccc3OC)c12", "survival": "inactive: 83%"}, {"compound": "COc1ccccc1N=C1SC(C(=O)Nc2ccccc2OC)CC(=O)N1C", "note": "(stereo not drawn)", "survival": "inactive: 51%"}, {"compound": "O=C(NCCOCCn1c(=O)oc2ccccc21)Nc1cccc(Cl)c1", "survival": "inactive: 75%"}, {"compound": "COC(=O)c1ccccc1NC(=O)C1CCCN(c2ncnc3onc(C)c23)C1", "note": "(stereo not drawn)", "survival": "inactive: 80%"}]}]}
